# In PubChem BioAssay (Tox21):
# “And” between values parts separate entries of the source, which are not always exact repeats. Equal entries are not always repeated. This list was built around the results that the source calls inconclusive (neither active nor inactive); the mix of calls is not that of the screen. A potency beside an inconclusive call is a rough fit, not a confirmed value. The source made the active and inactive calls. Unless noted, the call rests on the fitted dose curve; in most records, active means well fitted curve in the direction sought with a large enough effect in the repeat runs; inconclusive means weak or mixed curves; inactive means no such curve, though single readings can be large; an effect the other way counts as inactive or inconclusive.
# Legend:
# [1] = biological target: Progesterone receptor (Homo sapiens) (UniProt P06401); assay: qHTS assay to identify small molecule antagonists of the progesterone receptor (PR) signaling pathway (AID 1346795; active means well fitted inhibition curve with a large enough effect in the signal ratio in the repeat runs, not every such curve was filed as active; inconclusive means weak or mixed curves; the % refers to the signal ratio); details: PR-UAS-bla HEK293T, beta-lactamase FRET ratio, 16 h; activity change, negative = inhibition: at 92.4 µM (top of the series) unless noted
# Procedure, shortened: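 HEK293T PR-UAS-bla reporter cells in charcoal-stripped serum (2%) received compound after a 6 hr settling period, followed by R5020 agonist at 1 nM final; 16 hr incubation preceded the FRET substrate step and fluorescence measurement.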
# [2] = qHTS assay to identify small molecule antagonists of the progesterone receptor (PR) signaling pathway - cell viability counter screen (AID 1346798); further: nearly all actives have a fitted effect of over 50% in size; on activity change, negative = cytotoxicity: on the % scale 0 is the no-effect control and ±100 the full control effect
# Procedure, shortened: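 Same-well multiplex: after 16 hr at 37C with compound and R5020 stimulation, HEK293T cells carrying a UAS-bla reporter received LiveBLAzer substrate (2 hr RT), then CellTiter-Glo (30 min RT) for luminescent viability.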
# [3] = Human pregnane X receptor (PXR) small molecule agonists, qHTS cell viability counter screen (AID 1346977); further: nearly all actives have a fitted effect of over 50% in size; on activity change, negative = cytotoxicity: on the % scale 0 is the no-effect control and ±100 the full control effect
# Procedure, shortened: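 Measures live-cell protease fluorescence (CellTiter-Fluor) in PXR-Luc HepG2 cells treated 24hr with compounds at 37C. Cells had 5hr to attach before pin transfer of DMSO solutions.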
# [4] = qHTS assay to identify small molecule antagonists of the TGF-beta/Smad signaling pathway (AID 1346924; active means well fitted inhibition curve with a large enough effect in the signal ratio in the repeat runs, not every such curve was filed as active; inconclusive means weak or mixed curves; the % refers to the signal ratio); details: SBE-bla HEK293T, TGF-beta/Smad reporter, beta-lactamase ratio; activity, negative = inhibition: at 76.8 µM (top of the series) unless noted
# Procedure, shortened: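 Read-out was FRET-substrate fluorescence (405 nm excitation; 460 and 530 nm emission) after 2 h at room temperature. Before that, cells carrying a Smad-binding-element beta-lactamase reporter in HEK 293T had been stimulated 5 h at 37 C with TGF-beta1 (0.25 ng/mL addition solution) in the presence of test compound.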
# [5] = biological target: Cytochrome P450 2D6 (Homo sapiens) (UniProt P10635); assay: Cytochrome P450 Family 2 Subfamily D Member 6 (CYP2D6) small molecule antagonists: luciferase reporter qHTS assay (AID 1671196); further: nearly all actives have a fitted effect of over 50% in size
# Procedure, shortened: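 Room-temperature luminescent CYP2D6 activity assay: compound preincubated 10 min with enzyme–substrate mix, NADPH-initiated reaction 1 h, detection reagent 20 min before reading.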
# [6] = biological target: Nuclear receptor subfamily 1 group I member 2 (Homo sapiens) (UniProt O75469); assay: Human pregnane X receptor (PXR) small molecule agonists, qHTS assay (AID 1346982); further: nearly all actives have a fitted effect of over 35% in size; on activation: on the % scale 0 is the no-effect control and ±100 the full control effect
# Procedure, shortened: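 Tox21 qHTS; PXR-Luc HepG2; compounds pinned from DMSO; 24 hr, 37 C; ONE-Glo luciferase detection, 30 min room temperature.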
# [7] = Caspase-3/7 induction in CHO-K1 cells by small molecules, qHTS cell viability counter screen (AID 1346979); details: CellTiter-Fluor fluorescence, 17 h; activity change, negative = cytotoxicity: at 92.4 µM (top of the series); further: nearly all actives have a fitted effect of over 35% in size
# Procedure, shortened: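 In the same wells as the caspase read, viability of compound-treated wild-type CHO-K1 cells was assessed using CellTiter-Fluor, added after 16hr at 37C and measured by fluorescence following 1hr further incubation.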
# [8] = Caspase-3/7 induction in HepG2 cells by small molecules, qHTS cell viability counter screen (AID 1346981); further: nearly all actives have a fitted effect of over 30% in size; on activity change, negative = cytotoxicity: on the % scale 0 is the no-effect control and ±100 the full control effect
# Procedure, shortened: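 After a 5-hr attachment period at 37 C and 5% CO2, wild-type HepG2 cells received compounds in DMSO. Sixteen hours later CellTiter-Fluor was dispensed and the fluorescent signal quantified after a further hour.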
# [9] = biological target: Nuclear receptor subfamily 1 group I member 2 (Rattus norvegicus) (UniProt Q9R1A7); assay: Rat pregnane X receptor (rPXR) activation by small molecules, qHTS assay (AID 1346983); details: rPXR luciferase reporter cells, One-Glo luminescence, 24 h; max activation: hits give high values; further: nearly all actives have a fitted effect of over 20% in size
# Procedure, shortened: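 Cell-based rPXR luciferase reporter assay, 2,000 cells per well, rested 5hr at 37 C before compound addition in DMSO, then 24 hr at 37 C. One-Glo reagent was added and luminescence read after 30 min at room temperature.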
# [10] = biological target: Cytochrome P450 2C9 (Homo sapiens) (UniProt P11712); assay: Cytochrome P450 Family 2 Subfamily C Member 9 (CYP2C9) small molecule antagonists: luciferase reporter qHTS assay (AID 1671198); further: nearly all actives have a fitted effect of over 50% in size
# Procedure, shortened: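 CYP2C9 activity was measured with a P450-Glo proluciferin substrate. Enzyme–substrate mix was held with compound for 10 min at room temperature, then NADPH regeneration solution was added for 1 h at 37C. Luciferin product was read as luminescence.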
# [11] = biological target: Cytochrome P450 2C19 (Homo sapiens) (UniProt P33261); assay: Cytochrome P450 Family 2 Subfamily C Member 19 (CYP2C19) small molecule antagonists: luciferase reporter qHTS assay (AID 1671197); further: nearly all actives have a fitted effect of over 65% in size
# Procedure, shortened: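 First, compounds are pinned into enzyme-substrate mix and held 10 min at room temperature. Second, NADPH regeneration solution is added and plates incubate 1 h at 37C. Third, detection reagent is added and luminescence read after 20 min.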
# Potency means the concentration at half of the fitted maximal effect; tags describe the fitted curve by direction and shape or compound fluorescence and quenching.
# UniProt O75469, sequence (O75469 whole entry, looked up): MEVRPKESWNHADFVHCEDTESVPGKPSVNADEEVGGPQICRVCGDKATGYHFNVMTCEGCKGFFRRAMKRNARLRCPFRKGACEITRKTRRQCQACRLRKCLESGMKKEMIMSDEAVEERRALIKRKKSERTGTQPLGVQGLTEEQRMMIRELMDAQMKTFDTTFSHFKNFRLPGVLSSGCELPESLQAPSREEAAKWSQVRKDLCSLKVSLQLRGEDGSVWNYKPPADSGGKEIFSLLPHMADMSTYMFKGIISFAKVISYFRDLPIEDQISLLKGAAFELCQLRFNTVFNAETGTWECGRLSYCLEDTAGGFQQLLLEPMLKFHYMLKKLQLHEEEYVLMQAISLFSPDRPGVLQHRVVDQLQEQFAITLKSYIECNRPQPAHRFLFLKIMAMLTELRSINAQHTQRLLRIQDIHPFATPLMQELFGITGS
# UniProt P10635, sequence (P10635 whole entry, looked up): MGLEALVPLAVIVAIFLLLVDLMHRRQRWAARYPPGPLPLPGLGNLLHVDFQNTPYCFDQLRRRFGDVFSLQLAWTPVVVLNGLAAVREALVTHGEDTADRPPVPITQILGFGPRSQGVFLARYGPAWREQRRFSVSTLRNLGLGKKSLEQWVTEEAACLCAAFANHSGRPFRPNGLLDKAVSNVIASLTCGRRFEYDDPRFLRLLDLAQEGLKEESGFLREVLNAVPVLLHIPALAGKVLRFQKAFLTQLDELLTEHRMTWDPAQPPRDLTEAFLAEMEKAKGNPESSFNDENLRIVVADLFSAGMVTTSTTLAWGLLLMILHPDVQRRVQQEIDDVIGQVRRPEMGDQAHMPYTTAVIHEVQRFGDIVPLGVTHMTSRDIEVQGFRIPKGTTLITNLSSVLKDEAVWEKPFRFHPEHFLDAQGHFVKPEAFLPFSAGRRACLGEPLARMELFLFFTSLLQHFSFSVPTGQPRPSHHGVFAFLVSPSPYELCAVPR
# UniProt P11712, sequence (P11712 whole entry, looked up): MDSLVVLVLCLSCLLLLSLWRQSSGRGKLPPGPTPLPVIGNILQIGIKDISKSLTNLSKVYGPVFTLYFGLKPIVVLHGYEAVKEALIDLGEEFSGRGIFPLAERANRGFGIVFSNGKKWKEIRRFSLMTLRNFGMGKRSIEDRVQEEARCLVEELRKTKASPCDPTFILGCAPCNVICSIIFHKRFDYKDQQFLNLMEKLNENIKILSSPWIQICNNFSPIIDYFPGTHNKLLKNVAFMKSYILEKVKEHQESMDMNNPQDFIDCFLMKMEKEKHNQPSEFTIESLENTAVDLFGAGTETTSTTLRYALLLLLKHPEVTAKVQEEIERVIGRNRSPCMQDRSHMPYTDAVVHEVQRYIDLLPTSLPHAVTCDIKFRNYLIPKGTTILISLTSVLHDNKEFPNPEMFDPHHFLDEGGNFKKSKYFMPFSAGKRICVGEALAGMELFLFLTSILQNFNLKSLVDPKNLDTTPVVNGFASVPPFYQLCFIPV
# UniProt P06401, sequence (P06401 whole entry, looked up): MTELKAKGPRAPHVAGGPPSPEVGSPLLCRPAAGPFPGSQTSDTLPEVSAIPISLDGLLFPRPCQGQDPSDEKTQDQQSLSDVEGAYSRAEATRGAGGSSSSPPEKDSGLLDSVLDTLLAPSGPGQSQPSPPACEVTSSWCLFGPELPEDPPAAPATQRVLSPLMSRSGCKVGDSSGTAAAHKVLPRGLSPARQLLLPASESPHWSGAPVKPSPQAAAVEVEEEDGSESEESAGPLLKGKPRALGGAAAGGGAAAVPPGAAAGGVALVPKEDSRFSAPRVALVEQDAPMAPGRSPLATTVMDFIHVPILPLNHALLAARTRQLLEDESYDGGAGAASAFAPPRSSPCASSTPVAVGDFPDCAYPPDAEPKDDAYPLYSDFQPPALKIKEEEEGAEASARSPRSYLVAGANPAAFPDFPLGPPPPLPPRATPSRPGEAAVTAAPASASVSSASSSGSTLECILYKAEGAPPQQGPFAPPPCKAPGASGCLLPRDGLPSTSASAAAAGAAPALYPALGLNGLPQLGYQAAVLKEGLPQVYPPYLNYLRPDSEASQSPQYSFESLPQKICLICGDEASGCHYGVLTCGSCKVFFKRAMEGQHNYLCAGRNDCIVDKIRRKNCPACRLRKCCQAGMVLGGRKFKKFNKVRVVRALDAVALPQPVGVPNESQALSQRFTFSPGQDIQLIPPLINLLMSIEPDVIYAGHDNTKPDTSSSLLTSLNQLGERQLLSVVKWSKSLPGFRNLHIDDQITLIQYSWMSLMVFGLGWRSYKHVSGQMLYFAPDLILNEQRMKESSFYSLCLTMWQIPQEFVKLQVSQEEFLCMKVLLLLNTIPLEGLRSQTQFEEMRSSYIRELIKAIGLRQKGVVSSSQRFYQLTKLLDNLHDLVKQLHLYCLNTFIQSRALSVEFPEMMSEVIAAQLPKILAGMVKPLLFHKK
# UniProt P33261, sequence (P33261 whole entry, looked up): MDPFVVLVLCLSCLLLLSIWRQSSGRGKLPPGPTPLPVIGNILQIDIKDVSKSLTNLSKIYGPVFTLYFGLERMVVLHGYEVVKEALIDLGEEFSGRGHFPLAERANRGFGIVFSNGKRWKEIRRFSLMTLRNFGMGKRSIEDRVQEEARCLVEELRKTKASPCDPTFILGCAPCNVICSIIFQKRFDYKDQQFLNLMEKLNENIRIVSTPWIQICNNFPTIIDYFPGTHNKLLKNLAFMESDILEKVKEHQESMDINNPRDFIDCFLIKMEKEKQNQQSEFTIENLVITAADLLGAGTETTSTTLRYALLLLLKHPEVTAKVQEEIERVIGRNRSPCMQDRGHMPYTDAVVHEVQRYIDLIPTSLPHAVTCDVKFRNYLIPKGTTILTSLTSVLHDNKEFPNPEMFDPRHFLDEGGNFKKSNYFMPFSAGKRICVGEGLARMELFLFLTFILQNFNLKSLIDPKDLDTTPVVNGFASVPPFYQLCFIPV
# UniProt Q9R1A7, sequence (Q9R1A7 whole entry, looked up): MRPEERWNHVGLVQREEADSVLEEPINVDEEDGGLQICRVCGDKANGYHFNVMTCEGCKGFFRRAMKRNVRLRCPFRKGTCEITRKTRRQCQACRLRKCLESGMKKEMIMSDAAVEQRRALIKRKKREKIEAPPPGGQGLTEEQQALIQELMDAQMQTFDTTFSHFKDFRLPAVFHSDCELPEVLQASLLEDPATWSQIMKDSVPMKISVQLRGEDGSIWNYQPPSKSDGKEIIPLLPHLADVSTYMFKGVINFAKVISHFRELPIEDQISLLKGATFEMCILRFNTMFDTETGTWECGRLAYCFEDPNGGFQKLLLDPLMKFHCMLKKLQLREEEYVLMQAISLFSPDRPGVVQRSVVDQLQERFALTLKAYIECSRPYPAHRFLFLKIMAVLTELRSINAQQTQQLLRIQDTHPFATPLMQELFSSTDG
compound,measurement,setting,value
Oc1cccc2c(O)cccc12,Potency,[1],active: 48.6 µM
same,Potency,[2],inactive
same,Potency,[3],"inconclusive: 43.3 µM [cytotoxic, partial curve]"
c1cc[c]([Bi]([c]2ccccc2)[c]2ccccc2)cc1,Potency,[1],"inconclusive: 7.7 µM [rising, full curve]"
same,Potency,[2],"inconclusive: 21.7 µM [rising, partial curve]"
same,Potency,[4],"inconclusive: 12.3 µM [rising, partial curve, poor fit]"
same,Potency,[5],"inconclusive: 28.3 µM [inhibitor, partial curve]"
Cc1cc(CCCOc2c(C)cc(-c3noc(C(F)(F)F)n3)cc2C)on1,Potency,[1],"inconclusive: 26.6 µM [falling, partial curve]"
same,Potency,[2],"inconclusive: 18.8 µM [rising, partial curve, poor fit]"
same,Potency,[6],active: 21.1 µM
CCCCCCCCCCO[C@@H]1O[C@H](CO)[C@@H](O)[C@H](O)[C@H]1O,Potency,[1],inconclusive: 61.1 µM
same,Potency,[2],inactive
same,Potency,[7],"inconclusive: 77 µM [cytotoxic, single point]"
same,Potency,[6],"inconclusive: 24.3 µM [activator, partial curve, poor fit]"
O=C1CCCN1CCO,Potency,[1],"inconclusive: 27.3 µM [rising, partial curve]"
same,Potency,[2],"inconclusive: 13.7 µM [cytotoxic, full curve]"
same,Potency,[8],inactive
same,Potency,[6],inactive
COC(=O)C(c1ccccc1Cl)N1CCc2sccc2C1 (centres undefined),Potency,[1],inconclusive: 13.3 µM [partial curve]
same,Potency,[2],inactive
same,Potency,[3],inactive
same,Potency,[9],"inconclusive: 35.5 µM [activator, single point]"
same,Potency,[5],active: 17.4 µM
Oc1ccc(N=Nc2ccccc2)cc1,Potency,[1],active: 19.6 µM
same,Potency,[2],inactive
same,Potency,[3],"inconclusive: 69.5 µM [cytotoxic, single point]"
same,Potency,[8],active: 55.2 µM
same,Potency,[5],"inconclusive: 45.4 µM [inhibitor, partial curve]"
same,Potency,[10],active: 36.1 µM
O=Cc1cccc(Br)c1,Potency,[1],"inconclusive: 28 µM [rising, single point]"
same,Potency,[2],inactive
same,Potency,[5],"inconclusive: 81.7 µM [inhibitor, partial curve, poor fit]"
same,Potency,[11],active: 18.3 µM
CCC(=O)c1ccc2c(c1)N(CCCN(C)C)c1ccccc1S2,"activity change, negative = inhibition",[1],inconclusive: -33.7% [at 42.5 µM]
same,Potency,[2],inactive
same,Potency,[3],"inconclusive: 23.7 µM [cytotoxic, partial curve]"
same,Potency,[8],"inconclusive: 33.5 µM [cytotoxic, partial curve, poor fit]"
[Cl][Dy]([Cl])[Cl],"activity change, negative = inhibition",[1],inconclusive: 15.2%
same,Potency,[2],"inconclusive: 0.0863 µM [cytotoxic, single point]"
same,Potency,[7],inactive
same,Potency,[6],inactive
Cc1cccc(N(C)C(=S)Oc2ccc3c(c2)C2CCC3C2)c1 (centres undefined),Potency,[1],active: 15 µM
same,Potency,[2],"inconclusive: 29.8 µM [cytotoxic, partial curve, poor fit]"
same,Potency,[7],"inconclusive: 33.5 µM [cytotoxic, single point]"
same,Potency,[8],inactive
same,Potency,[5],"inconclusive: 43.6 µM [inhibitor, single point]"
CC1=C(C(=O)O)N2C(=O)[C@@H](NC(=O)[C@H](N)C3=CCC=CC3)[C@H]2SC1,"activity change, negative = inhibition",[1],inconclusive: 3.46% [at 42.5 µM]
same,Potency,[2],inactive
same,Potency,[7],inactive
same,Potency,[5],"inconclusive: 43.6 µM [inhibitor, single point]"
same,Potency,[11],"inconclusive: 8.71 µM [inhibitor, single point]"
CCCc1ccccc1,"activity change, negative = inhibition",[1],inconclusive: 6.7%
same,Potency,[2],inactive
same,Potency,[7],inactive
same,Potency,[6],inactive
CCCCCCCCN1CCCC1=O,Potency,[1],inactive
same,Potency,[2],"inconclusive: 13.7 µM [cytotoxic, single point]"
same,Potency,[3],inactive
same,Potency,[10],"inconclusive: 35.6 µM [inhibitor, partial curve]"
CCC/C=C/C=O,"activity change, negative = inhibition",[1],inconclusive: -1.56%
same,Potency,[2],"inconclusive: 8.4 µM [rising, partial curve, poor fit] and inconclusive: 1.72 µM [rising, partial curve, poor fit]"
same,Potency,[5],"inconclusive: 69 µM [inhibitor, partial curve, poor fit] and inconclusive: 89.4 µM [inhibitor, partial curve, poor fit]"
same,Potency,[11],"inconclusive: 35.6 µM [inhibitor, full curve]"
same,Potency,[10],"inconclusive: 69 µM [inhibitor, partial curve, poor fit] and inconclusive: 56.4 µM [inhibitor, partial curve]"
